Source: PubChem BioAssay AID686978 (National Center for Advancing Translational Sciences (NCATS), 2013)
Hit rate of the full screen: of about 420,000 compounds, about 64,000 (15%) were called active. This list was built around the results that the source calls inconclusive (neither active nor inactive); the mix of calls is not that of the screen. The call rests on the fitted dose curve; in most records, active means well fitted inhibition curve with a large enough effect; inconclusive means small, poorly fitted or top-dose-only effect; inactive means flat fitted curve, though single readings scatter. Potencies of inconclusive entries are left out as doubtful fits.

Test: qHTS for Inhibitors of human tyrosyl-DNA phosphodiesterase 1 (TDP1): qHTS in cells in absence of CPT; further: nearly all actives have a fitted effect of over 55% in size
Details: DT40 Tdp1-/- hTDP1 cells, no CPT, ATP luminescence, 48 h; series mostly up to 46.2 µM
Procedure, shortened: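 DT40 Tdp1-/-;hTDP1 cells, no CPT (DMSO vehicle only), 400 cells/well; compounds pin-transferred; ≥48 hr, 37 °C; CellTiter-Glo 30 min RT dark, luminescence read.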
Potency means the concentration at half of the fitted maximal effect; tags describe the fitted curve by direction and shape.

Structure (SMILES)	Potency
Cc1ccc2[nH]cc(CCNC(=O)c3ccc4c(c3)OCO4)c2c1	inactive
CCC(Oc1ccc(Br)cc1Cl)C(=O)Nc1nnc(C2CC2)s1 (stereo not drawn)	inactive
Cc1ccc2c(c1)c(-c1csc(N)n1)c(C)n2C	inactive
CCOC(=O)N1CCc2c(sc3c2C(=O)NC(c2ccccc2F)N3)C1 (stereo not drawn)	active: 16.4 µM
Cc1ccc(Nc2nc3c(s2)CCC3)c(C)c1	inconclusive [inhibitor, single point]
Cc1noc(C)c1-c1ccc(C(=O)NCC2CC2)c2occc12	inconclusive [inhibitor, single point]
NCC(c1ccc(Cl)cc1Cl)c1c[nH]c2ccccc12 (stereo not drawn)	active: 23.1 µM
Cc1ccc2[nH]c(SCC(=O)N3CCOCC3)nc2c1C	inactive
O=C1C2=C(Nc3ccccc3SC2c2ccco2)c2ccccc21 (stereo not drawn)	inconclusive [inhibitor, single point]
O=C(N/N=C/C(Cl)=C\c1ccccc1)c1cnccn1	active: 20.6 µM
Cn1c(CN2CCN(CCO)CC2)c(C#N)c2ccccc21	inactive
COC(=O)c1ccc(C23CC4(C2)[C@H](CN(Cc2cccnc2)[C@@H]4c2ccccc2)C3c2ccc(Cl)nc2)cc1 (stereo partly drawn)	inconclusive [inhibitor, single point]
c1ccc(CCN2CCN=C2Nc2ccccc2)cc1	inactive
CC(C)c1ccc(S(=O)(=O)N2CCN(C(=O)c3ccc(N4CCCC4)c([N+](=O)[O-])c3)CC2)cc1	inconclusive [inhibitor, single point]
CCCOc1ccc(N2CC(C(=O)NC3=NCCS3)CC2=O)cc1 (stereo not drawn)	inactive
COc1ccccc1CNc1nccn(-c2ccccc2)c1=O	inconclusive [inhibitor, single point]
Cc1ccc(-n2c(=O)c3c4c(sc3n(CC(=O)Nc3ccccc3C)c2=O)CCCCC4)cc1C	inactive
CN(C)c1ncc2ncc(=O)n(Cc3ccc(F)cc3)c2n1	active: 20.6 µM
COCCN1CC(C(=O)N2CCC(Oc3ccccc3OC)CC2)CCC1=O (stereo not drawn)	inactive
Cc1ccc(Cl)cc1NC(=S)N/N=C/c1cccc2ccccc12	active: 4.61 µM
CCCCC1CCC(C(=O)N2CC(=O)Nc3ccc(Cl)cc3C2c2ccc(F)cc2)CC1 (stereo not drawn)	inconclusive [inhibitor, single point]
CC1=C(C(=O)N(C(C)C)C(C)C)CC(CC(=O)NC2CCCC2)C(=O)N1Cc1ccccc1 (stereo not drawn)	inconclusive [inhibitor, single point]
Cc1ccc(C)n1/N=C1/NC(=O)CS1	inactive
